# Assay results from PMC4336329 (PLoS ONE, 2015).
# Hit rate of the full screen: of about 310,000 compounds, about 14,000 (4.5%) showed an effect of 50% or more. Effects have a minus sign here. This is one part of the list.
# Molecular target: human ether-à-go-go-related gene (hERG) potassium channel (human, UniProt Q12809)
# Assay: primary screen, population patch clamp on CHO cells stably expressing hERG
# 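Further: peak tail current of the secondary pulse compared with the same well before compound.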
# Sequence of human ether-à-go-go-related gene (hERG) potassium channel (Q12809 whole entry, looked up): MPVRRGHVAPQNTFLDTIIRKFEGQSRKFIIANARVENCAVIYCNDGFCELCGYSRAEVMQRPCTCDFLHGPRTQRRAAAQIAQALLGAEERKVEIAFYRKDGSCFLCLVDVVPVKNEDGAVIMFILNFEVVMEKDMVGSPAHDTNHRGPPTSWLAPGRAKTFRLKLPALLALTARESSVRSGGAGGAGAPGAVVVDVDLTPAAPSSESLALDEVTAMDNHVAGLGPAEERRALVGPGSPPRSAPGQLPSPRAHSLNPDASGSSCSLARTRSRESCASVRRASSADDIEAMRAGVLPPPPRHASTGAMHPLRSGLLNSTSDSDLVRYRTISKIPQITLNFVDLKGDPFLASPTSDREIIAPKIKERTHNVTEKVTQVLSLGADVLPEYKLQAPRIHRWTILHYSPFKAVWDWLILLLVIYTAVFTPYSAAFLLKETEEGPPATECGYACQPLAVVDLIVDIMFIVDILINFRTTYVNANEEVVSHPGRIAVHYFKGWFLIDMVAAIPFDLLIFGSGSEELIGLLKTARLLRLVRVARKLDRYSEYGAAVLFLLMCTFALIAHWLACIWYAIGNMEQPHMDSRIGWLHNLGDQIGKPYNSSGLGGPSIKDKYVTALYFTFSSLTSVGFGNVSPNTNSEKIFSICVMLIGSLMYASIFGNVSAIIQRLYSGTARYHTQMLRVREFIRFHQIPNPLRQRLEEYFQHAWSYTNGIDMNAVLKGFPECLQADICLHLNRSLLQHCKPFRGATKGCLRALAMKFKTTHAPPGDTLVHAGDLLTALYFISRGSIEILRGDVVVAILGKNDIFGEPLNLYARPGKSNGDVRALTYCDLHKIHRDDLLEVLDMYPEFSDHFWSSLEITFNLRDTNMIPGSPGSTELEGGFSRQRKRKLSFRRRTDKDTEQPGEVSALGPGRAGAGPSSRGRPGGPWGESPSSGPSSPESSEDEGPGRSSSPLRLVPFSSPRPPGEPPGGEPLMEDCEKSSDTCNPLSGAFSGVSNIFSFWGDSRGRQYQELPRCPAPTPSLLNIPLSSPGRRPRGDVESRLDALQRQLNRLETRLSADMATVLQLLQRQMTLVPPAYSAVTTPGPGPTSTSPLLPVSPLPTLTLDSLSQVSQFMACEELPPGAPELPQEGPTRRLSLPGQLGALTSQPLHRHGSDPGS
row,Compound,"hERG current change (%, negative = inhibition) at 10uM [%]"
1,COc1cccc2cc(C(=O)NCc3ccc(Cl)cc3)c(=O)oc12,14.4
2,Cc1ccc(S(=O)(=O)N2CC(C)C(=O)CC2C)cc1 (centres unmarked),4.46
3,Cc1cc(C(=O)COC(=O)Cc2n[nH]c(=O)c3ccccc23)c(C)n1-c1cccc(C(F)(F)F)c1,-7.28
4,CCCCCCc1cc2cc(-c3nnc(-c4ccccc4)o3)c(=O)oc2cc1O,5.15
5,O=c1c(C(c2ccccc2)c2c(O)nc3n(c2=O)CCS3)c(O)nc2n1CCS2,4.21
6,COc1ccc(/C=C/C(=O)Oc2ccc(C)c(C)c2)cc1OC,-15.5
7,Cc1nnc(N)s1,16.4
8,CC(NC(=O)c1cc2ccccc2o1)C(=O)O (centres unmarked),12
9,Cc1nonc1OCC(C)(COc1nonc1C)NC(=O)c1ccc(Cl)cc1,-61.1
10,O=C(COC(=O)c1cc([N+](=O)[O-])ccc1NCCO)c1ccccc1,-15.9
11,O=C(NCCSc1ccccn1)c1ccc(Cl)cc1Cl,-11.4
12,COc1ccc(N2C(=O)CC(C)(C)CC2=O)cc1OC,16
13,Cc1cc(C)nc(SCC(=O)NN=C2CCCC2)n1,34.2
14,CN(C)C(CNC(=O)c1ccc(NC(=O)CC#N)cc1)c1ccccc1 (centres unmarked),2.86
15,CCN(CC(=O)Nc1ccc(NC(C)=O)cc1)C(=O)Cc1cccc2ccccc12,4.98
16,O=C(C1=C[C@@H](C2CC2)C[C@@H](OCc2ccc(CO)cc2)O1)N1CCN(Cc2ccc3c(c2)OCO3)CC1,-51.7
17,Cc1ccc(OCCC(=O)N(CC(=O)Nc2ccccc2C(F)(F)F)Cc2ccco2)cc1,-15.2
18,O=C(NCc1ccco1)C1CCN(S(=O)(=O)c2ccc(-n3cnnn3)cc2)CC1,-70.5
19,O=S(=O)(c1ccc(S(=O)(=O)N2CCC(O)CC2)cc1)N1CCCC1,23
20,CSc1nc2ccc(NC(=O)c3cc4ccccc4o3)cc2s1,26.6
21,c1ccc(-c2cn3c(n2)CCC3)cc1,7.39
22,OCCC1CN(Cc2cnc(-c3ccccc3)s2)CCN1Cc1ccccc1 (centres unmarked),-57.5
23,CCCCn1c(N)c(N(CC(C)C)C(=O)C2CCN(S(=O)(=O)c3ccc(F)cc3)CC2)c(=O)[nH]c1=O,-2.26

row,Compound,"hERG current change (%, negative = inhibition) at 10uM [%]"
1,COc1cccc(NC(=S)N(CCCN2CCOCC2)C(C)c2cc3ccccc3o2)c1 (centres unmarked),-44
2,CN1CCN(C2Cc3ccccc3Sc3ccc(Cl)cc32)CC1.O=C([O-])/C=C\C(=O)[O-] (centres unmarked),-65.9
3,COC(=O)c1ccccc1NC(=O)NCc1ccncc1,0.204
4,Cc1ccc(NC(=S)NCc2ccc(F)cc2)cc1,2.33
5,Cc1ccc(S(=O)(=O)NC(=O)NN2CC3CCCC3C2)cc1 (centres unmarked),24.4
6,COc1cccc(OCC(=O)NNC(=O)C(=O)N2CCCC2)c1,-0.427
7,O=C(CCCN1C(=O)C2CC=CCC2C1=O)Nc1ccccc1Cl (centres unmarked),-13.9
8,CC1(C)CC(=O)C2=C(C1)Oc1ncn(CCCO)c(=N)c1C2c1ccccc1 (centres unmarked),-29
9,CCOC(=O)c1c(NC(=O)COC(=O)c2c(C)noc2C)sc2c1CCC2,2.68
10,CCCCCCCCCSc1n[nH]c(N)n1,-3.66
11,CN(CC(=O)N1CCc2ccccc21)S(=O)(=O)c1ccc(Cl)cc1,-51.2
12,CCOc1ccc(-c2cnc(NCc3cccc4ccccc34)n2CCOC)cc1.O=C(O)C(=O)O,-58.8
13,Cn1cc(CN2CCN(Cc3ccccc3)C(CCO)C2)c(-c2ccccc2)n1 (centres unmarked),-37.9
14,CCOc1ccc(-c2nnc(SCc3nnc(-c4ccccc4)o3)n2-c2ccccc2F)cc1,-0.81
15,O=Cc1cn(Cc2ccccc2[N+](=O)[O-])c2ccccc12,-6.81
16,CC(C)C(c1nnnn1C1CCCC1)N1c2ccccc2CC1C (centres unmarked),-13.5
17,O=[N+]([O-])c1ccc(Nc2ccccn2)c([N+](=O)[O-])c1,-4.46
18,COc1ccc(-c2nnc(-c3ccc(OCC(C)C)cc3)o2)cc1,14.5
19,CCN(CC)c1ccc(/C=C/c2nc3ccccc3s2)cc1,6.35
20,CCCC1(CCC)NC(=O)NC1=O,20.9
21,O=C(Cc1ccc(Cl)cc1)Nc1cccc(S(=O)(=O)Nc2ccccc2F)c1,11.9
22,C=Cc1ncc(OC)c2c1[nH]c1ccccc12,0.633
23,Cc1c(NS(=O)(=O)c2ccc(N)cc2)c(=O)n(-c2ccccc2)n1C,22.1

row,Compound,"hERG current change (%, negative = inhibition) at 10uM [%]"
1,CCCCNC(=O)Cc1c(O)c2ccccc2[nH]c1=O,6.39
2,CCOC(=O)C1CCCN(C/C(O)=C(\C#N)c2nc(-c3ccc(Cl)cc3)cs2)C1 (centres unmarked),-35.3
3,CCOc1ccc(NC(=O)c2nc(SCC)ncc2Cl)cc1,15
4,CCCOc1ccc(C(=O)CCC(=O)NNC(=O)c2cccs2)cc1,-4.05
5,COc1ccc(OCC(=O)N2CCc3ccccc3C2)cc1,6.27
6,O=c1[nH]nc(C(F)(F)F)c2nnn(Cc3ccccc3Cl)c12,14.1
7,CCOCCCNC(=O)c1ccc2c(c1)ncn2-c1ccc(C)cc1C,-16.7
8,O=C(NCCN1CCNC1=O)C1CCC(=O)N(CCc2ccccc2)C1 (centres unmarked),4.81
9,O=C(CSc1ccc(-c2ccco2)nn1)c1ccccc1,-9.74
10,CCn1nc(C(=O)OCC(=O)NC(C)C)c2ccccc2c1=O,8.88
11,CC(=O)c1ccc(N2CCN(C(=O)COc3ccccc3F)CC2)c(F)c1,-39.7
12,Cc1sc(NC(=O)CSc2nc(N)n(CC(=O)c3ccccc3)n2)c(C#N)c1C,2.65
13,COc1cccc(C(=O)OCn2nnc3ccccc3c2=O)c1OC,5.98
14,CCn1ccc(C(=O)Nc2ccccc2Cl)n1,-2.33
15,Cc1oc(-c2ccccc2F)nc1CS(=O)CC(=O)NCc1ccc(Cl)cc1 (centres unmarked),-25.6
16,O=C(NCCN1CCOCC1)c1cnn2c(-c3ccccc3)cc(-c3ccccc3)nc12,-72.5
17,COc1cccc(NC(=O)CSc2nnc(-c3ccoc3C)n2C)c1,4.35
18,O=C(CNC(=O)c1nc[nH]c1C(=O)N1CCN(c2ccccc2)CC1)OCc1ccccc1,-16.5
19,O=C(O)c1cccc(CSc2nnc(-c3ccco3)o2)c1,10.1
20,COc1cccc(CNC(=O)C2CCN(S(=O)(=O)c3ccc(-n4cnnn4)cc3)CC2)c1,-57.3
21,Cc1nc(SCCC(C)C)c([N+](=O)[O-])[nH]1,17.6
22,O=C(NC(=O)c1ccccc1)Nc1ccc(Cl)cn1,14.4
23,CCOc1ccccc1N(CC(=O)Nc1ccc(S(=O)(=O)N2CCCC2)cc1)S(C)(=O)=O,-19.6

row,Compound,"hERG current change (%, negative = inhibition) at 10uM [%]"
1,CC1CCC(NC(=O)c2ccc(CNc3c(NC4CCCCC4)c(=O)c3=O)cc2)CC1 (centres unmarked),6.77
2,COc1cc(CN2CCC(Oc3cc(C(=O)NC4CC4)ccc3OC)CC2)cc(OC)c1,-72.8
3,Cc1noc(C)c1COC(=O)Cn1c(C)nc2ccccc21,2.93
4,O=C1C=C(c2ccc3c(c2)OCO3)C[C@@H](c2ccc(F)cc2)C1,23.8
5,Cc1cccc(OCC(=O)Nc2ccccc2C(F)(F)F)c1,-2.17
6,O=C(/C=C/c1ccccc1)N(Cc1ccc(Cl)cc1)C1CCS(=O)(=O)C1 (centres unmarked),-30.6
7,Cc1cc(=O)c(C(=O)Nc2cccc(N3CCCC3=O)c2)nn1-c1ccccc1Cl,-6.49
8,NC(=O)C1=C[C@@H](C2CCCCC2)C[C@@H](OCc2ccc(CO)cc2)O1,-10.4
9,Cl.NCCCCCc1nnc(SCc2ccc(Cl)cc2Cl)o1,-26.1
10,COc1cc(-c2noc(C)c2-c2ccc3[nH]ccc3c2)cc(OC)c1OC,8.02
11,COc1ccnc(CN(C)C(=O)C2CCC(=O)N(Cc3cccc(C(F)(F)F)c3)C2)c1 (centres unmarked),-18.6
12,CC(C)CC(=O)Nc1cccc(NC(=O)c2ccccc2Cl)c1,-22.7
13,Cc1ccccc1Cn1cc(NC(=O)c2noc(C(C)C)c2[N+](=O)[O-])cn1,-3.3
14,COC(=O)c1ccc(NC(=O)c2ccc(N(C)S(C)(=O)=O)cc2)cc1,-1.19
15,Cn1cccc1C(=O)NC(=O)COC(=O)c1cc(S(=O)(=O)N2CCCCC2)ccc1Cl,12.1
16,O=C(N/N=C/c1cccc2cccnc12)[C@H]1C[C@@H]1c1ccccc1,-11.2
17,Cc1ccc(-c2csnn2)cc1,6.13
18,Cc1ccc(C(=O)Nc2nc(=O)[nH]s2)cc1,9.01
19,N#Cc1ccc(N2CCN(C(=O)c3cccc(F)c3)CC2)c(F)c1,-66.8
20,Cc1ccc(/C(O)=C2\C(=O)C(=O)N(CC(C)O)C2c2cccc(F)c2)cc1 (centres unmarked),28.4
